Values joined by “and” are separate entries in the source; they are usually repeats but may differ in a detail not shown here. Identical values can stand only once. Screen size: about 360,000 compounds; about 2,600 (0.72%) were called active. Inconclusive results, whose numbers are uncertain, are shown with a selection of clear calls. Calls come from the whole dose curve; as a rule, active = well fitted inhibition curve with a large enough effect; inconclusive = small, poorly fitted or top-dose-only effect; inactive = no such curve, though single readings can be large or run the other way. Where the call is inconclusive, the potency comes from a doubtful curve fit.
Experiment: Primary qHTS for Inhibitors of ATXN expression; note: nearly all actives have a fitted effect of over 55% in size
Conditions: HEK-293 ATXN2-luciferase reporter, luminescence, 24 h; series mostly up to 57 µM
Procedure, shortened: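 ATXN2-luciferase reporter cells (luciferase flanked by upstream and downstream ATXN2 gene portions) were treated 24 h at 37 °C with compounds at up to 57 uM. SteadyGlo luminescence gave expression; GF-AFC fluorescence gave viability.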
Potency is the fitted concentration of half-maximal effect; tags give direction and shape of the fitted curve.

Potency, inconclusive:
CC(C)Nc1nc(-c2ccncc2)nc(-c2ccccc2)c1C#N 11.2 µM [inhibitor, partial curve, poor fit]
COc1ccc(N(C(=O)c2cccc(C)c2)S(=O)(=O)c2ccc(Cl)cc2)cc1 28.2 µM [inhibitor, single point]
Cc1ccc2[nH]c3c(N4CCN(Cc5ccccc5)CC4)ncnc3c2c1 17.8 µM [inhibitor, partial curve, poor fit]
O=C(C=Cc1ccccc1F)c1ccccc1 25.1 µM [inhibitor, single point]
CCCNC(=O)c1cc2c(c(-c3cccc(-c4ccccc4F)c3)n1)[C@H](CCO)N(C(=O)CC1CC1)C2 35.5 µM [inhibitor, partial curve]
COc1ccc2[nH]c(=O)c(CN(Cc3nnnn3Cc3ccco3)C3CCCCC3)cc2c1 28.2 µM [inhibitor, partial curve, poor fit]
CCC(C)Sc1cccc(-c2nc3cnccn3c2NC2CCCCC2)c1 (centres undefined) 28.2 µM [inhibitor, single point]
CCCN(CC1CC1)c1cc2c(c3c1ccn3C)C1CCC2C1 (centres undefined) 31.6 µM [inhibitor, single point]
Cc1cccc(NC(=O)CSc2ncnc3c2oc2ccccc23)c1 35.5 µM [inhibitor, single point]
Cc1cc(C)c2cc(C#N)c(NCCNC(=S)NCCCN3CCOCC3)nc2c1 33.6 µM [inhibitor, single point]
COc1ccc(NC(=O)c2c(NC(=O)c3ccc(Br)cc3)sc3c2CCCC3)cc1 35.5 µM [inhibitor, single point]
Cc1cc(Cl)ccc1NC(=S)NCCC(c1ccccc1)c1ccccc1 28.2 µM [inhibitor, single point]
CCOC(=O)C1=C(COCCN)NC(C)=C(C(=O)OC)C1c1ccccc1Cl (centres undefined) 28.2 µM [inhibitor, single point] and 31.6 µM [inhibitor, single point]
Cc1ccc2nc(NC(=O)CN(C)S(=O)(=O)c3cccc4nsnc34)sc2c1 10 µM [inhibitor, partial curve]
CCOC(=O)N1CCN(C(c2cccnc2)c2ccc3cccnc3c2O)CC1 (centres undefined) 25.1 µM [inhibitor, single point]
CCN(Cc1ccccc1)S(=O)(=O)c1ccc2c(c1)CC(C)N2C(=O)C1CCC1 (centres undefined) 20 µM [inhibitor, partial curve, poor fit]
CC(C)(C)c1ccc(Cn2c(=N)n(CC(O)c3ccco3)c3ccccc32)cc1 (centres undefined) 23.8 µM [inhibitor, single point]
COC(=O)c1c(NC(=O)c2cccc([N+](=O)[O-])c2)sc(C(N)=O)c1C 18.9 µM [inhibitor, partial curve, poor fit]
COc1cc(C=c2c3ccccc3n3c2cc(-c2ccccc2)[n+]3C)cc(OC)c1OC 28.2 µM [inhibitor, single point]
COC(=O)c1sccc1NC(=O)c1c(F)c(F)c(F)c(F)c1F 25.1 µM [inhibitor, single point]
COc1ccc(/C=C/C(=O)Nc2ccccc2C(=O)O)cc1OC 25.1 µM [inhibitor, single point]
COc1cc(-c2nc3ccc(C)cn3c2NCc2ccccc2)ccc1SC1CCCCC1 22.4 µM [inhibitor, partial curve, poor fit]
CC(N)c1csc(NC(=O)c2cc(C(C)(C)C)nn2Cc2ccccc2)n1 (centres undefined) 31.6 µM [inhibitor, single point]
NS(=O)(=O)c1ccc(NC(=S)NC(=O)c2ccc(-c3ccccc3)cc2)cc1 17.8 µM [inhibitor, partial curve, poor fit]
CN(C)CCNC(=O)Nc1ccc(Cl)c(Cl)c1 28.2 µM [inhibitor, partial curve, poor fit]
CN(C)c1ccc(CNC(=O)C2Cc3c(-c4ccccc4Oc4ccccc4)ccnc3O2)cc1 (centres undefined) 39.8 µM [inhibitor, partial curve, poor fit]

Potency, active:
CC#CC[N+](C)(C)CCCCCCCCCCCC 25.1 µM
COc1cc(OC)c2cc(C(=O)N/N=C/c3cccc(OC)c3O)[nH]c2c1 3.16 µM
COc1cccc(OC)c1C(=O)NNC(=O)c1cccc(COc2ccc3c(c2)CCC3)c1 5.62 µM
O=C(Nc1ccc(N2CCN(C(=O)c3ccco3)CC2)c(Cl)c1)c1c(F)c(F)c(F)c(F)c1F 28.2 µM

Potency, inactive:
COc1ccc(Nc2nc(N3CCN(S(C)(=O)=O)CC3)nc3ccccc23)c(OC)c1
Cc1ccc(-c2nnc(COC(=O)c3ccco3)o2)cc1
COC(=O)c1[nH]c2c(c1C)C(=O)CC(c1cc(OC)ccc1OC)C2 (centres undefined)
COc1ccc(S(=O)(=O)N2CCOCC2)cc1NC(=O)c1cc2c(s1)CCCC2
COC(=O)[C@@]1(Cc2ccc(F)cc2)[C@H]2c3cc(C(=O)N4CCCC4)n(CCO)c3C[C@H]2CN1C(=O)c1ccccc1
O=C(O)c1cccc(N2C(=O)/C(=C/c3ccc(SCc4ccc(Cl)cc4)o3)SC2=S)c1
O=Cc1ccccc1OCCOc1ccccc1C=O
CCCCN(CC)C(=O)Cn1ncc2c3ccccc3n(CCC)c2c1=O
Cc1[nH]n(-c2ccc(Cl)cc2)c(=O)c1/C=N/c1nnc(-c2ccccc2)s1
O=[N+]([O-])c1c(C(Cl)Cl)nn(-c2ccccc2)c1N1CCCC1
Cc1ccc(-c2noc(CCC(=O)NCCN3CCc4ccccc4C3)n2)cc1
O=C(Nc1nc2ccccc2[nH]1)c1ccc(OC(F)F)cc1
CCOC(=O)C1CCN(C(=O)Nc2cc(Cl)cc(Cl)c2)CC1
O=C(c1ccccc1)c1ccc2ccccc2c1
